Target: T1, biotinylated truncated STAT6 (123-632)-avi (Homo sapiens, UniProt P42226)
T1 sequence (P42226 123-632 limits assumed): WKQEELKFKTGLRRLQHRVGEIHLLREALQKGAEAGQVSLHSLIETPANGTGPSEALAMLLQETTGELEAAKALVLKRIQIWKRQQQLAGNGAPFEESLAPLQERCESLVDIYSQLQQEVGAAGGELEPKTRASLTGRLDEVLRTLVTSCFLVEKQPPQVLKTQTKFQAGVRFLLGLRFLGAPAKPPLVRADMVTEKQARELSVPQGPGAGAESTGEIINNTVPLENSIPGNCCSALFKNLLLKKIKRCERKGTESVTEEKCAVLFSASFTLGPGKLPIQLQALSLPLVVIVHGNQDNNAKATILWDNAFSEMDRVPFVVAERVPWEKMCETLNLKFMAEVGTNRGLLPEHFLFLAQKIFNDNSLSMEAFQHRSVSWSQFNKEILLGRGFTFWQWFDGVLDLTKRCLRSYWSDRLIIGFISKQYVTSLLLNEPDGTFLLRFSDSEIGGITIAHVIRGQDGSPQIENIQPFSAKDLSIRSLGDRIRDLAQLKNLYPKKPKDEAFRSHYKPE
Test: Homogenous Time-Resolved Fluorescence (HTRF) binding assay
Conditions: 0.15 nM biotinylated truncated STAT6 (123-632)-avi, 20 nM fluorescein-labeled probe

Row | SMILES | IC50 (30 minutes at room temperature) | IC50 (30 minutes room temperature)
1 | COc1ccccc1-c1cc(C2=CCCN(C(=O)CCn3ccnn3)C2)c(F)c2[nH]c(C(=O)N3CCN(c4cc5c(cnn5C)cc4C)CC3)cc12 [Example I-341] | < 100 nM | 
2 | COc1cccc(C)c1-c1cc(C2=CCCN(C(C)=O)C2)c(F)c2[nH]c(C(=O)N(C)C)cc12 [Example I-1658] |  | 100 to 1000 nM
3 | COc1ccccc1-c1cc(C2=CCCN(C(=O)CCn3ccnn3)C2)c(F)c2[nH]c(C(=O)N3CCN(c4ncc(C(F)(F)F)cc4OC)CC3)cc12 [Example I-941] | < 100 nM | 
4 | CNCc1cc(C2=CCCN(C(=O)CCn3ccnn3)C2)cc2cc(C(=O)N(C)C)oc12 [Example I-203] | 100 to 1000 nM | 
5 | COc1ccccc1-c1cc(C2=CCCN(C(=O)CCn3ccnn3)C2)c(F)c2[nH]c(C(=O)N3CCN(c4ncccc4C(F)(F)F)CC3)cc12 [Example I-329] | < 100 nM | 
6 | COc1ccccc1-c1cc(C2=CCCN(C(=O)CCn3ccnn3)C2)c(F)c2[nH]c(C(=O)N3CCN(c4cnc5cc[nH]c5n4)CC3)cc12 [Example I-1435] |  | < 100 nM
7 | COc1cccnc1N1CCN(C(=O)c2cc3c(-c4ccc5ncccc5c4OC)cc(C4=CCCN(C(=O)CCn5ccnn5)C4)c(F)c3[nH]2)CC1 [Example I-577] | < 100 nM | 
8 | COc1ccncc1-c1cc(C2=CCCN(C(=O)CCn3ccnn3)C2)c(F)c2[nH]c(C(=O)N3CCN(c4nc(C)ccc4OC)CC3)cc12 [Example I-433] | > 100000 nM | 
9 | COc1ccccc1-c1cc(C2=CCCN(C(=O)CCn3ccnn3)C2)c(F)c2[nH]c(C(=O)N3CCN(c4cc(C)cn5ncnc45)CC3)cc12 [Example I-950] | < 100 nM | 
10 | CCc1ccncc1-c1cc(C(=O)N2Cc3cnn(C)c3C2)cc2sc(N3CCCCC3=O)nc12 [Example I-1254] |  | 10000 to 100000 nM
11 | COc1ccccc1-c1cc(C2=CCCN(C(=O)CCn3ccnn3)C2)c(F)c2[nH]c(C(=O)N(CCO)C[C@@H](C)O)cc12 [Example I-1620] |  | 1000 to 10000 nM
12 | CCc1nc(C)ccc1-c1cc(C(=O)N2CCN(C3CC3)CC2)cc2cc(C3=CCCN(C(=O)CCn4ccnn4)C3)n(CC3CC3)c12 [Example I-1227] |  | < 100 nM
13 | CN(C)C(=O)c1cc2ccc(C3=CCCN(C(=O)CC(C)(O)C(F)(F)F)C3)cc2[nH]1 (stereo not drawn) [Example I-46] | 10000 to 100000 nM | 
14 | COc1cccnc1N1CCN(C(=O)c2cc3c(-c4cnccc4OC4CC4)cc(C4=CCCN(C(=O)CCn5ccnn5)C4)c(F)c3[nH]2)CC1 [Example I-556] | < 100 nM | 
15 | CN(C)C(=O)c1cc2ccc(C3=CCCN(C(=O)c4[nH]nc5c4CS(=O)(=O)C5)C3)cc2[nH]1 [Example I-57] | 10000 to 100000 nM | 
16 | O=C(CCn1ccnn1)N1CCCC(n2ccc3cc(N4CCCCC4=O)ccc32)C1 (stereo not drawn) [Example I-1302] |  | 10000 to 100000 nM
17 | CN(C)C(=O)c1cc2cc(C3=CCCN(C(=O)CCn4ccnn4)C3)cc(-c3ccc4cnn(C)c4c3)c2o1 [Example I-1072] | < 100 nM | 
18 | COc1ccccc1-c1cc(C2=CCCN(C(=O)[C@H]3Cc4ccccc4CN3C=O)C2)cc2cc(C(=O)N(C)C)oc12 (single isomer, unassigned) [Example I-804] | 100 to 1000 nM | 
19 | CN(C)C(=O)c1cc2ccc(C3=CCCN(C(=O)Cn4cc(C(N)=O)cn4)C3)c(F)c2[nH]1 [Example I-1251] |  | 10000 to 100000 nM
20 | CCc1cc(C)ncc1-c1cc(C2=CCCN(C(=O)CCn3ccnn3)C2)c(F)c2[nH]c(C(=O)N3CCN(c4ncc(F)cc4OC)CC3)cc12 [Example I-707] | 10000 to 100000 nM | 
21 | Cc1c(C(=O)N(C)C)[nH]c2c(F)c(C3=CCCN(C(=O)CCn4ccnn4)C3)ccc12 [Example I-1586] |  | < 100 nM
22 | COc1ccccc1-c1cc(C2=CCCN(C(=O)CCn3ccnn3)C2)c(F)c2[nH]c(C(=O)N3CCc4ccc(N)cc4C3)cc12 [Example I-1012] | < 100 nM | 
23 | COc1cc(N2CCN(C(=O)c3cc4c(-c5ccccc5OC)cc(C5=CCCN(C(=O)CCn6ccnn6)C5)c(F)c4[nH]3)CC2)c2ccnn2c1 [Example I-926] | < 100 nM | 
24 | COc1cc(F)cnc1N1CCN(C(=O)c2cc3c(-c4ccc(C(O)C(F)(F)F)cc4)cc(C4=CCCN(C(=O)CCn5ccnn5)C4)c(F)c3[nH]2)CC1 (stereo not drawn) [Example I-1145] | < 100 nM | 

Source: US20250214977A1, “STAT6 INHIBITORS AND USES THEREOF” (Kymera Therapeutics, Inc., priority 2024, published 2025)
